{
  "source": "paper doi:10.1101/2025.11.26.690757",
  "about": "(bioRxiv, 2025)",
  "molecular_target": "dominant-negative Gαi1 (G203A, A326S) (human, UniProt P63096, G203A | A326S)",
  "experiment": "cryo-EM structure",
  "data": [
    {"binder": "human GPR17, active-conformation construct KC165 (wild type, full length 1-367) (receptor) MSKRSWWAGSRKPPREMLKLSGSDSSQSMNGLEVAPPGLITNFSLATAEQCGQETPLENMLFASFYLLDFILALVGNTLALWLFIRDHKSGTPANVFLMHLAVADLSCVLVLPTRLVYHFSGNHWPFGEIACRLTGFLFYLNMYASIYFLTCISADRFLAIVHPVKSLKLRRPLYAHLACAFLWVVVAVAMAPLLVSPQTVQTNHTVVCLQLYREKASHHALVSLAVAFTFPFITTVTCYLLIIRSLRQGLRVEKRLKTKAVRMIAIVLAIFLVCFVPYHVNRSVYVLHYRSHGASCATQRILALANRITSCLTSLNGALDPIMYFFVAEKFRHALCNLLCGKRLKGPPPSFEGKTNESSLSAKSEL", "values": [
      {"measurement": "binding result", "result": "binds"}
    ]}
  ]
}
